pIC50: −log10 of the molar value. IC50 is the fitted dose that halves viability relative to control wells, and lower means more sensitive; where the fit passes the top or lowest dose, that dose stands as a limit. The AUC spans the tested range (256-fold, ending at the top dose) of the same fit; values near 1 show little effect. For part of these data: A top dose marked as inferred was derived from the fitted curves, not read from the paper. For part of these data: An entry number marks a drug with two screens in the source, which often give different values.
How the values were obtained:
Assay in all cases: Viability of human cancer cell lines after 72 h of drug (GDSC screen)
Tamoxifen = compound: CC/C(=C(\c1ccccc1)c1ccc(OCCN(C)C)cc1)c1ccccc1 [Tamoxifen]; details: top dose 5 µM
Experimental: (§1)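 Human cancer cell lines in 384-well plates, medium with 10% serum, drug for 72 h over a 256-fold dose range (nine 2-fold or five 4-fold steps up to the top dose). Adherent lines were fixed and stained with the nucleic acid dye Syto60, suspension lines read with resazurin; signal relative to control wells, capped at 0 and 100%. One two-parameter sigmoid per drug and line, fitted in a mixed model over all curves with the slope shared within a line.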

VNLG/124 = compound: CCCC(=O)OCc1ccc(OC(=O)/C=C(C)/C=C/C=C(C)/C=C/C2=C(C)CCCC2(C)C)cc1 [VNLG/124]; details: top dose 5.12 µM; top dose inferred
Experimental: as §1

Elesclomol = compound: CN(NC(=O)CC(=O)NN(C)C(=S)c1ccccc1)C(=S)c1ccccc1 [Elesclomol]; details: top dose 0.2 µM; top dose inferred
Experimental: as §1

HG-5-88-01 = compound: COc1cc(N2CCC(C(N)=O)CC2)ccc1Nc1nc(N)c(Cl)c(Nc2ccccc2S(=O)(=O)C(C)C)n1 [HG-5-88-01]; details: top dose 10 µM; top dose inferred
Experimental: as §1

Bleomycin = compound: Cc1c(N)nc([C@H](CC(N)=O)NC[C@H](N)C(N)=O)nc1C(=O)N[C@H](C(=O)N[C@H](C)[C@@H](O)[C@H](C)C(=O)N[C@H](C(=O)NCCc1nc(-c2nc(C(=O)NCCC[S+](C)C)cs2)cs1)[C@@H](C)O)[C@@H](OC1OC(CO)C(O)C(O)C1OC1OC(CO)C(O)C(OC(N)=O)C1O)c1cnc[nH]1 [Bleomycin]
Experimental: as §1

Masitinib = compound: Cc1ccc(NC(=O)c2ccc(CN3CCN(C)CC3)cc2)cc1Nc1nc(-c2cccnc2)cs1 [Masitinib]; details: top dose 20 µM
Experimental: as §1

LAQ824 = compound: O=C(/C=C/c1ccc(CN(CCO)CCc2c[nH]c3ccccc23)cc1)NO [LAQ824]; details: top dose 1.024 µM; top dose inferred
Experimental: as §1

OSI-930 = compound: O=C(Nc1ccc(OC(F)(F)F)cc1)c1sccc1NCc1ccnc2ccccc12 [OSI-930]; details: top dose 10.24 µM
Experimental: as §1

BX-912 = compound: O=C(Nc1cccc(Nc2ncc(Br)c(NCCc3cnc[nH]3)n2)c1)N1CCCC1 [BX-912]; details: top dose 10.24 µM; top dose inferred
Experimental: as §1

NSC-87877 = compound: O=S(=O)(O)c1ccc2cc(N=Nc3cc(S(=O)(=O)O)c4cccnc4c3O)ccc2c1 [NSC-87877]; details: top dose 16 µM; top dose inferred
Experimental: as §1

[1] = top dose 50 µM, screen: GDSC drug entry 1378, top dose inferred
[2] = top dose 64 µM, screen: GDSC drug entry 190

Cell Line | AUC (Tamoxifen) | pIC50 (Tamoxifen) | AUC (VNLG/124) | pIC50 (VNLG/124) | AUC (Elesclomol) | pIC50 (Elesclomol) | AUC (HG-5-88-01) | pIC50 (HG-5-88-01) | AUC (Bleomycin; [1]) | pIC50 (Bleomycin; [1]) | AUC (Bleomycin; [2]) | pIC50 (Bleomycin; [2]) | AUC (Masitinib) | pIC50 (Masitinib) | AUC (LAQ824) | pIC50 (LAQ824) | AUC (OSI-930) | pIC50 (OSI-930) | AUC (BX-912) | pIC50 (BX-912) | AUC (NSC-87877) | pIC50 (NSC-87877)
NALM-6 (B-cell leukaemia, suspension) | 0.972 | < 5.30 | 0.948 | < 5.29 | 0.986 | < 6.70 | 0.984 | < 5.00 | 0.814 | 4.66 | 0.179 | 6.27 | 0.676 | 5.45 | 0.209 | 7.97 | 0.838 | 5.27 | 0.416 | 6.41 | 0.987 | < 4.80
NCI-H1770 (non-small cell lung carcinoma, suspension) | 0.989 | < 5.30 | 0.987 | < 5.29 | 0.936 | < 6.70 | 0.879 | 5.09 | 0.969 | < 4.30 | 0.571 | 5.22 | 0.975 | < 4.70 | 0.429 | 7.38 | 0.98 | < 4.99 | 0.903 | < 4.99 | 0.99 | < 4.80
RERF-LC-MS (lung adenocarcinoma, adherent) | 0.974 | < 5.30 | 0.987 | < 5.29 | 0.456 | 8.02 | 0.92 | < 5.00 | 0.537 | 5.40 | 0.799 | 4.50 | 0.984 | < 4.70 | 0.706 | 6.60 | 0.986 | < 4.99 | 0.983 | < 4.99 | 0.939 | < 4.80
SR (lymphoid neoplasm, suspension) | 0.895 | < 5.30 | 0.982 | < 5.29 | 0.603 | 7.63 | 0.028 | > 7.41 | 0.106 | 6.71 | 0.033 | > 6.60 | 0.534 | 5.82 | 0.197 | 8.04 | 0.872 | 5.09 | 0.396 | 6.47 | 0.979 | < 4.80
huH-1 (liver, adherent) | 0.982 | < 5.30 | 0.975 | < 5.29 | 0.459 | 8.03 | 0.9 | < 5.00 | 0.783 | 4.58 | 0.926 | < 4.19 | 0.947 | < 4.70 | 0.681 | 6.63 | 0.971 | < 4.99 | 0.984 | < 4.99 | 0.984 | < 4.80
EKVX (lung adenocarcinoma, adherent) | 0.896 | < 5.30 | 0.948 | < 5.29 | 0.639 | 7.33 | 0.84 | < 5.00 | 0.833 | < 4.30 | 0.799 | < 4.19 | 0.967 | < 4.70 | 0.746 | 6.12 | 0.956 | < 4.99 | 0.961 | < 4.99 | 0.97 | < 4.80
LCLC-97TM1 (large cell lung carcinoma, adherent) | 0.977 | < 5.30 | 0.943 | < 5.29 | 0.858 | 6.72 | 0.837 | 5.12 | 0.175 | 6.54 | 0.348 | 5.84 | 0.784 | 5.03 | 0.404 | 7.47 | 0.813 | 5.21 | 0.681 | 5.67 | 0.958 | < 4.80
CaR-1 (large intestine, adherent) | 0.963 | < 5.30 | 0.973 | < 5.29 | 0.862 | < 6.70 | 0.935 | < 5.00 | 0.249 | 6.40 | 0.392 | 5.76 | 0.94 | < 4.70 | 0.624 | 6.78 | 0.966 | < 4.99 | 0.914 | < 4.99 | 0.976 | < 4.80
CHP-212 (neuroblastoma, adherent) | 0.986 | < 5.30 | 0.959 | < 5.29 | 0.384 | 8.21 | 0.75 | 5.52 |  |  | 0.111 | 6.60 | 0.899 | < 4.70 | 0.186 | 8.09 | 0.971 | < 4.99 | 0.704 | 5.64 | 0.988 | < 4.80
NCI-H1623 (lung adenocarcinoma, adherent) | 0.98 | < 5.30 | 0.981 | < 5.29 | 0.755 | 7.09 | 0.916 | < 5.00 | 0.561 | 5.32 | 0.767 | 4.54 | 0.973 | < 4.70 | 0.637 | 6.78 | 0.975 | < 4.99 | 0.98 | < 4.99 | 0.98 | < 4.80
NCI-H2291 (lung adenocarcinoma, adherent) | 0.976 | < 5.30 | 0.976 | < 5.29 | 0.928 | < 6.70 | 0.865 | < 5.00 | 0.86 | < 4.30 | 0.968 | < 4.19 | 0.962 | < 4.70 | 0.943 | < 5.99 | 0.976 | < 4.99 | 0.981 | < 4.99 | 0.979 | < 4.80

Reference: the supplement of paper PMC4967469
